Values joined by “and” are separate entries in the source; they are usually repeats but may differ in a detail not shown here. Equal entries are not always repeated. About 1,200 (2.5%) of roughly 48,000 compounds were called active. Roughly 2% stayed inconclusive and do not appear here.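 The calls were made as follows: active = activation of at least 60% and not above a set upper limit (about 1 call in 100 departs from these limits); inconclusive = activation of 40% to 60%, or above that upper limit; inactive = activation under 40%.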 The list shows a part of the results.
Biological target: Probable G-protein coupled receptor 32 (Homo sapiens) (UniProt O75388)
Test: qHTS for Agonists of Human Resolvin D1 Receptor DRV1; also: 0% is about no effect
Settings: CHO-K1 GPR32 beta-arrestin PathHunter luminescence, 90 min; at 76.9 µM; stronger effect = higher value; zero percent set by DMSO-only wells
How it was run: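 Luminescent readout of beta-Gal complementation quantifies ligand-induced beta-arrestin association with GPR32 in CHO-K1 cells; 90 min compound incubation at 37 °C, detection 1 h at room temperature.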

Compound	activation
O=C(NCc1ccccc1)c1cc2sccc2n1Cc1ccc(F)cc1	inactive: -0.474%
Cc1ccc(CNC(=O)C(=O)NCC(c2cccnc2)N2CCN(c3ccc(F)cc3)CC2)cc1 (configuration not stated)	inactive: 1.67%
CCOc1ccc(C(=O)c2cn(CC(=O)Nc3ccc4c(c3)OCCO4)c3ccc(OC)cc3c2=O)cc1	inactive: 3.96%
CCCc1nn2c(=O)cc(COC(=O)c3cccs3)nc2s1	inactive: 16.4%
Cc1ccc(C)c(NC(=O)c2nc(S(C)(=O)=O)ncc2N(Cc2ccc(C(C)(C)C)cc2)Cc2ccco2)c1	inactive: -12.4%
CN1C(=O)Cc2cc(S(=O)(=O)N3CCN(c4cccc(C(F)(F)F)c4)CC3)ccc21	inactive: -3.7%
Cc1cccc(C(=O)Nc2ccc(C(=O)OCc3cc(=O)n4c5c(sc4n3)CCCC5)cc2)c1	inactive: -7.31%
CCOc1ccc(C(=O)CSc2nc3cc(C(=O)NC4CCCC4)ccc3c(=O)n2CC2CCCO2)cc1 (configuration not stated)	inactive: -13%
CC(=O)c1ccc(NC(=O)c2ccc3c(c2)nnn3C2CCCC2)cc1	inactive: 0.239%
CCOC(=O)N1CCC(NC(=O)c2ccc3c(c2)N(Cc2cc(C)ccc2C)C(=O)c2ccccc2S3(=O)=O)CC1	inactive: -26.2%
CCOc1ccc(CCn2c3c(c(=O)[nH]c2=O)C(NC(=O)c2ccccc2)(C(F)(F)F)C(=O)N3)cc1OCC (configuration not stated)	inactive: 27.4%
CCCCCn1c(=O)[nH]c2cc(C(=O)N3CCN(c4cc(Cl)ccc4C)CC3)ccc2c1=O	inactive: 3.58%
COc1ccc(NC(=O)CSc2nc3ccccc3nc2Cc2ccc(C)cc2)cc1Cl	inactive: -14.2%
Cc1ccccc1C(=O)OCc1cc(=O)n2nc(C3CC3)sc2n1	inactive: 9.09%
Cc1ccc(C(=O)OCc2cc(=O)n3nc(-c4cccs4)sc3n2)cc1	inactive: -10.5%
CCOC(=O)c1c(S(=O)(=O)NCC(=O)Nc2cc(C)ccc2OC)c(C)n(C)c1C	inactive: -10.5%
CCN(CC)c1ccc2cc(-c3nc(-c4ccc(Cl)cc4Cl)cs3)c(=O)oc2c1	inactive: 14.7%
O=C(Cn1cc(SCc2ccccc2F)c2ccccc21)N1CCCCCC1	inactive: -21.6%
COc1ccccc1NC(=O)Cn1c(=O)n(Cc2cccs2)c(=O)c2cccnc21	inactive: 1.33%
Cc1nc(-c2ccccc2)sc1-c1ccc(SCC(=O)NCc2ccccc2)nn1	inactive: 16.5%
N=c1ccn2c(n1)O[C@H]1[C@H](O)[C@@H](CO)O[C@H]12	inactive: -0.0273%

Compound	activation
CCOC(=O)c1ccc(Nc2nc3nonc3nc2Nc2cccc(C)c2C)cc1	inactive: -7.49%
Cc1c(Cl)cccc1NC(=O)C1CCCN(c2nnc(-n3c(C)ccc3C)s2)C1 (configuration not stated)	inactive: 3.69%
O=C(NCc1ccc2c(c1)OCO2)c1ccc2c(c1)N(Cc1cccc(Cl)c1)C(=O)c1ccccc1S2=O (configuration not stated)	inactive: -14.2%
COc1ccc(CNC(=O)Cn2c(=O)nc(-c3ccccc3F)c3cc(Cl)ccc32)cc1	inactive: -0.374%
CCN(CC)C(=O)CSc1nc2cc3c(cc2c(=O)n1CCCCCC(=O)NCc1ccc(OC)cc1)OCO3	inactive: -13.5%
Cc1ccc(CSC2=Nc3ccccc3C3=NC(CCC(=O)NCc4cccs4)C(=O)N23)cc1 (configuration not stated)	inactive: -18.4%
O=C(NCC(c1ccc2c(c1)OCO2)N1CCN(c2ccccc2)CC1)C(=O)Nc1cccc(F)c1 (configuration not stated)	inactive: -6.22%
CCN(CCCNC(=O)c1ccc(Sc2ccc(F)cc2)c(NC(C)=O)c1)c1ccccc1	inactive: -16.8%
Cc1ccc(F)cc1NC(=O)Cn1c(=O)nc(-c2ccccc2F)c2cc(Cl)ccc21	inactive: -8.79%
Cc1ccc(-c2nc3c(C)cccn3c2Nc2ccccc2C)s1	inactive: -21.3%
COc1ccc(C2=C(C)C(=O)N(Cc3ccc(C(=O)Nc4cccc(F)c4)cc3)S2(=O)=O)cc1	inactive: -3.39%
CC1CCCN(c2nc3c(S(=O)(=O)c4ccc(C(C)C)cc4)nnn3c3ccsc23)C1 (configuration not stated)	inactive: -9.67%
CCC1CCCCN1CCCNC(=O)c1c(O)nc2ccccn2c1=O (configuration not stated)	inactive: -1.42%
COc1ccc(-c2csc(-c3nc(-c4ccc(Br)s4)cs3)n2)cc1F	inactive: -2.21%
COc1ccccc1C(=O)NCc1nnnn1-c1ccc(C)c(C)c1	inactive: -2.37%
CCCC1=Nc2cc(C(=O)NCCc3ccc(OCC)cc3)ccc2Sc2ccccc21	inactive: -21.6%
COc1cc2c(-c3ccccc3O)nc3c(c(C)nn3-c3ccccc3)c2cc1OC	inactive: -22.7%
COc1cccc(CN2C(=O)c3ccccc3Sc3ccc(C(=O)NCCc4ccc(C)cc4)cc32)c1	inactive: -12.4%
CCC(=O)N1CCc2cc(S(=O)(=O)N(C)c3cccc(C)c3)ccc21	active: 63.2%
O=C(/C=C/c1ccccc1)N1CCN(Cc2cc(=O)n3nc(-c4ccccc4)sc3n2)CC1	inactive: 0.561%
COC(=O)CSc1nnc2n(-c3ccccc3)c(=O)c3c4c(sc3n12)COC(C(C)C)C4 (configuration not stated)	active: 64.6%

Compound	activation
CS(=O)(=O)c1ccc([C@@H](O)[C@@H](CO)NC(=O)C(Cl)Cl)cc1	inactive: 23.5%
CCCOc1ccc(C2C(=O)N(C3CCCCCC3)CC(=O)N2CCCOCC)cc1OC (configuration not stated)	inactive: -14.7%
Cc1ccccc1NC(=O)c1sc2nc(N3CCOCC3)c3c(c2c1N)CC(C)(C)OC3	inactive: -18.1%
CCN(c1cc(C)cc(C)c1)S(=O)(=O)c1nnc(NC(=O)c2cccc(F)c2)s1	inactive: 22.1%
CCOc1ccccc1N1CC(c2nc3ccccc3n2CCOc2ccc(C(C)(C)C)cc2)CC1=O (configuration not stated)	active: 72.9%
CCOc1ccccc1N(C)C(=O)Cn1nc(Cc2cccnc2)c2ccccc2c1=O	inactive: -89%
COc1cc(NC(=O)N2CCN(c3cc(-c4noc(C)n4)ccc3C)CC2)cc(OC)c1OC	inactive: 9.31%
CC(C)Cc1ccc([C@H](C)C(=O)O)cc1	inactive: -2.99%
COc1ccc2c(c1)c1c(c(=O)n(CCc3ccccc3)c(=O)n1Cc1ccc(Cl)cc1)n2C	inactive: 5.25%
Cc1ccc(NC(=O)/C(C#N)=C\c2ccc(Cl)cc2Cl)cc1C	inactive: 33.8%
Nc1c(-c2nc(-c3ccccc3)no2)nnn1CC(=O)Nc1ccccc1	inactive: -19.5%
COc1ccccc1CNC(=O)Cn1ncc2c(C)n(Cc3ccccc3Cl)c(C)c2c1=O	inactive: -19.7%
Cc1ccc(-c2ccc(CCC(=O)O)n2-c2ccc(C(C)C)cc2)cc1	inactive: 3.54%
CCN(c1ccc(C)cc1)S(=O)(=O)c1nnc(NC(=O)c2cccs2)s1	active: 84.6%
CC(C)c1ccccc1NC(=O)CSc1nnc(COc2ccccc2Cl)o1	active: 86.5%
CCOc1ccccc1NC(=O)N1CCN(S(=O)(=O)c2ccc3c(ccn3C)c2)CC1	inactive: -22.9%
CCN(CC)CCNC(=O)c1cc2c(=O)[nH]c3ccc(C)cc3c2s1	inactive: 6.67%
Cc1coc2cc3oc(=O)c(CC(=O)NCc4ccccc4)c(C)c3cc12	inactive: -4.52%
C[C@]12C=CC(=O)C=C1CC[C@@H]1[C@@H]2[C@@H](O)C[C@@]2(C)[C@H]1CC[C@]2(O)C(=O)CO	inactive: 9.77%
CCOc1ccccc1NC(=O)c1cc(S(=O)(=O)NC2CCCC2)ccc1F	inactive: -29.7%
COc1cccc(-c2cnc(NCc3ccccc3Cl)n2C)c1	inactive: -11.2%

Compound	activation
CC(=O)N1CCCc2cc(S(=O)(=O)N3CCCC(C(=O)Nc4ccc(C)c(C)c4)C3)ccc21 (configuration not stated)	inactive: -8.74%
CC(C)(C)c1ccc(S(=O)(=O)Nc2ccc(O)c(Sc3nc4ccccc4s3)c2)cc1	inactive: 2.42%
Cc1ccc(C)c(N2CCN(C(=O)c3cc4c(=O)n(Cc5cccs5)ccc4nc3C)CC2)c1	inactive: -34.8%
Cc1ccc(S(=O)(=O)Nc2cc3c(cc2Cl)n(C)c(=O)c(=O)n3C)cc1	inactive: 7.24%
CCOc1ccc2nc(N3CCC(C(=O)Nc4c(C)cccc4C)CC3)sc2c1	inactive: -4.07%
O=c1[nH]cc(F)c(=O)[nH]1	inactive: 7.35% and inactive: 9.43%
Cc1ccc(C)c(CN2C(=O)c3ccccc3S(=O)c3ccc(C(=O)N(C)Cc4ccccc4)cc32)c1 (configuration not stated)	inactive: -25.1%
CCOc1cc(NC(C)=O)ccc1C(=O)OC	inactive: 1.06%
CCCCOc1ccc(CNC(=O)c2ccc(NC(=O)N3CCSc4ncccc43)cc2)cc1	inactive: 12.4%
Cc1ccc(-n2ncc(C(=O)N3CCC(c4ccccc4)C3)c2C2CCN(C(=O)OC(C)(C)C)CC2)cc1 (configuration not stated)	inactive: -16.8%
O=S(=O)(Nc1cccc(-c2ccc(N3CCOCC3)nn2)c1)c1ccc(F)cc1F	inactive: 28.9%
O=C(Nc1nc(-c2ccc(Br)cc2)ns1)c1ccccc1F	active: 60.3%
CCCc1nn2c(C)c(-c3ccccc3)nc2s1	inactive: -2.09%
Cc1cc(C)c2oc(C(=O)Nc3ccc(S(=O)(=O)N(C)c4ccccc4)cc3)cc(=O)c2c1	inactive: -17.3%
O=c1c2c3c(sc2n(Cc2cc(=O)n4ccccc4n2)c(=O)n1-c1ccc(Cl)cc1)CCC3	inactive: -3.51%
COC(=O)CCN(C(=O)c1c(C)oc2ncnc(N3CCOCC3)c12)c1ccccc1	inactive: -17.8%
Cc1cccc(N2CCN(C(=O)C3CCN(S(=O)(=O)c4ccc5c(c4)oc(=O)n5C)CC3)CC2)c1C	inactive: 8.14%
COc1ccccc1C(=O)OCc1cc(=O)n2nc(-c3cccs3)sc2n1	inactive: 25.3%
COc1ccc(OC)c(NC(=O)c2cnc(N3CCCCC3)c3ccccc23)c1	inactive: -23.7%
